According to the supplement of paper PMC8728848:
The list shows a part of the results.

Experiments:
Assay in all cases: glycan array binding signal (z-score within array); higher = stronger binding
Conditions in all cases: glycan notation: IUPAC condensed, linker removed
[1] = target: GalNAc(b1-4)GlcNAc(b1-2)Man
Summary of the method: (§1)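 The binding signal is a Z-score computed within each array and averaged over linkers. Arrays of the same protein sequence at different concentrations or buffers were also averaged together. Data originate from 3228 arrays in the Consortium for Functional Glycomics database, kept only where the protein sequence was available.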

[2] = target: GalNAc(b1-4)GlcNAc(b1-2)Man(a1-3)[GalNAc(b1-4)GlcNAc(b1-2)Man(a1-6)]Man(b1-4)GlcNAc(b1-4)GlcNAc
Summary of the method: as §1

[3] = target: GalNAc(b1-4)GlcNAc(b1-3)GalNAc(b1-4)GlcNAc
Summary of the method: as §1

GalNAc(b1-4)GlcNAc6S = target: GalNAc(b1-4)GlcNAc6S
Summary of the method: as §1

GalNAc(b1-6)GalNAc = target: GalNAc(b1-6)GalNAc
Summary of the method: as §1

GalNAc3S(b1-4)GlcNAc = target: GalNAc3S(b1-4)GlcNAc
Summary of the method: as §1

GalNAc3S(b1-4)GlcNAc3S = target: GalNAc3S(b1-4)GlcNAc3S
Summary of the method: as §1

[4] = target: GalNAc3S(b1-4)[Fuc(a1-3)]GlcNAc
Summary of the method: as §1

GalNAc4S6S(b1-4)GlcNAc = target: GalNAc4S6S(b1-4)GlcNAc
Summary of the method: as §1

GalNAc6S(b1-4)GlcNAc = target: GalNAc6S(b1-4)GlcNAc
Summary of the method: as §1

Glc(a1-4)Glc = target: Glc(a1-4)Glc
Summary of the method: as §1

[5] = target: Glc(a1-4)Glc(a1-4)Glc(a1-4)Glc
Summary of the method: as §1

Glc(a1-6)Glc(a1-6)Glc = target: Glc(a1-6)Glc(a1-6)Glc
Summary of the method: as §1

[6] = target: Glc(a1-6)Glc(a1-6)Glc(a1-6)Glc
Summary of the method: as §1

Glc(b1-4)Glc = target: Glc(b1-4)Glc
Summary of the method: as §1

Glc(b1-6)Glc = target: Glc(b1-6)Glc
Summary of the method: as §1

GlcA(b1-3)Gal = target: GlcA(b1-3)Gal
Summary of the method: as §1

GlcA(b1-3)GlcNAc = target: GlcA(b1-3)GlcNAc
Summary of the method: as §1

GlcA(b1-6)Gal = target: GlcA(b1-6)Gal
Summary of the method: as §1

[7] = target: GlcA3S(b1-3)Gal(b1-4)GlcNAc(b1-2)Man
Summary of the method: as §1

[8] = target: GlcA3S(b1-3)Gal(b1-4)GlcNAc(b1-3)Gal(b1-4)Glc
Summary of the method: as §1

[9] = target: GlcNAc(a1-3)Gal(b1-4)GlcNAc
Summary of the method: as §1

[10] = target: GlcNAc(a1-4)Gal(b1-3)GlcNAc
Summary of the method: as §1

[11] = target: GlcNAc(a1-4)Gal(b1-4)GalNAc
Summary of the method: as §1

[12] = target: GlcNAc(a1-4)Gal(b1-4)GlcNAc
Summary of the method: as §1

[13] = target: GlcNAc(a1-4)Gal(b1-4)GlcNAc(b1-3)Gal(b1-4)Glc
Summary of the method: as §1

[14] = target: GlcNAc(a1-4)Gal(b1-4)GlcNAc(b1-3)Gal(b1-4)GlcNAc
Summary of the method: as §1

[15] = target: GlcNAc(a1-4)Gal(b1-4)GlcNAc(b1-3)Gal(b1-4)GlcNAc(b1-3)Gal(b1-4)GlcNAc
Summary of the method: as §1

[16] = target: GlcNAc(a1-4)Gal(b1-4)GlcNAc(b1-3)Gal(b1-4)[Fuc(a1-3)]GlcNAc(b1-3)Gal(b1-4)[Fuc(a1-3)]GlcNAc
Summary of the method: as §1

[17] = target: GlcNAc(a1-6)Gal(b1-4)GlcNAc
Summary of the method: as §1

[18] = target: GlcNAc(b1-2)Gal(b1-3)GalNAc
Summary of the method: as §1

[19] = target: GlcNAc(b1-2)Man(a1-3)[GlcNAc(b1-2)Man(a1-6)]Man(b1-4)GlcNAc(b1-4)GlcNAc
Summary of the method: as §1

[20] = target: GlcNAc(b1-2)Man(a1-3)[GlcNAc(b1-2)Man(a1-6)]Man(b1-4)GlcNAc(b1-4)[Fuc(a1-6)]GlcNAc
Summary of the method: as §1

[21] = target: GlcNAc(b1-2)Man(a1-3)[GlcNAc(b1-4)][GlcNAc(b1-2)Man(a1-6)]Man(b1-4)GlcNAc(b1-4)GlcNAc
Summary of the method: as §1

[22] = target: GlcNAc(b1-2)Man(a1-3)[GlcNAc(b1-4)][GlcNAc(b1-2)Man(a1-6)]Man(b1-4)GlcNAc(b1-4)[Fuc(a1-6)]GlcNAc
Summary of the method: as §1

[23] = target: GlcNAc(b1-2)[GlcNAc(b1-4)]Man(a1-3)[GlcNAc(b1-2)Man(a1-6)]Man(b1-4)GlcNAc(b1-4)GlcNAc
Summary of the method: as §1

[24] = target: GlcNAc(b1-2)[GlcNAc(b1-4)]Man(a1-3)[GlcNAc(b1-4)][GlcNAc(b1-2)Man(a1-6)]Man(b1-4)GlcNAc(b1-4)GlcNAc
Summary of the method: as §1

[25] = target: GlcNAc(b1-2)[GlcNAc(b1-4)]Man(a1-3)[GlcNAc(b1-4)][GlcNAc(b1-2)[GlcNAc(b1-6)]Man(a1-6)]Man(b1-4)GlcNAc(b1-4)GlcNAc
Summary of the method: as §1

[26] = target: GlcNAc(b1-2)[GlcNAc(b1-4)]Man(a1-3)[GlcNAc(b1-4)][GlcNAc(b1-2)[GlcNAc(b1-6)]Man(a1-6)]Man(b1-4)GlcNAc(b1-4)[Fuc(a1-6)]GlcNAc
Summary of the method: as §1

[27] = target: GlcNAc(b1-2)[GlcNAc(b1-6)]Man(a1-6)[GlcNAc(b1-2)Man(a1-3)]Man(b1-4)GlcNAc(b1-4)GlcNAc
Summary of the method: as §1

[28] = target: GlcNAc(b1-2)[GlcNAc(b1-6)]Man(a1-6)[GlcNAc(b1-2)Man(a1-3)]Man(b1-4)GlcNAc(b1-4)[Fuc(a1-6)]GlcNAc
Summary of the method: as §1

[29] = target: GlcNAc(b1-2)[GlcNAc(b1-6)]Man(a1-6)[GlcNAc(b1-4)][GlcNAc(b1-2)Man(a1-3)]Man(b1-4)GlcNAc(b1-4)GlcNAc
Summary of the method: as §1

GlcNAc(b1-3)Fuc = target: GlcNAc(b1-3)Fuc
Summary of the method: as §1

GlcNAc(b1-3)Gal = target: GlcNAc(b1-3)Gal
Summary of the method: as §1

[30] = target: GlcNAc(b1-3)Gal(b1-3)GalNAc
Summary of the method: as §1

B1: B1567 (Bifidobacterium sp) (protein)
chain: MKFTTAKKAVALTGAVAMLVSVAACGSDSGKSSQPAQDSDVKEITVWAWEPSLTQVAKDFEKETGIKVDLKNVGTNTKEYTQLDNAIEAGSGAPDVAQVEYYAVPQYAIKGNLLDITDKTSGYKDFYTPGPWASVQFAGKVYGLPMDSGPMAFFYNKEVFDKAGVDAEQIKTWDQYYDAAKKIHALGDNYYITSDTGDAGFFDSMTWLAGAKPFQTSSDGSEVTVNLTEDKGVKTFTDFWQKLLDEGLLDTKTAGWSEDWFKGMVDGTIASLFTGAWMPANLANSAADGAGKWRVTQMPTADGSTTNSENGGSSLAVLASTKKADAAYQFIEYANHGAGVATRVAGGAFPADKASLEKDSFKNATTVKNADGQDVDYFGGQKYNEVLAQAAENVSSGYQFLPFEVKARTIFGDYFGKSYTGDQKLSDGVAAWQKALQDYGKDQGFTVK
[1]
  glycan array binding signal (z-score): 0.004
[2]
  glycan array binding signal (z-score): 0.398
[3]
  glycan array binding signal (z-score): -0.104
GalNAc(b1-4)GlcNAc6S
  glycan array binding signal (z-score): -0.109
GalNAc(b1-6)GalNAc
  glycan array binding signal (z-score): -0.095
GalNAc3S(b1-4)GlcNAc
  glycan array binding signal (z-score): -0.096
GalNAc3S(b1-4)GlcNAc3S
  glycan array binding signal (z-score): -0.058
[4]
  glycan array binding signal (z-score): -0.161
GalNAc4S6S(b1-4)GlcNAc
  glycan array binding signal (z-score): -0.099
GalNAc6S(b1-4)GlcNAc
  glycan array binding signal (z-score): -0.094
Glc(a1-4)Glc
  glycan array binding signal (z-score): -0.079
[5]
  glycan array binding signal (z-score): -0.046
Glc(a1-6)Glc(a1-6)Glc
  glycan array binding signal (z-score): -0.085
[6]
  glycan array binding signal (z-score): -0.142
Glc(b1-4)Glc
  glycan array binding signal (z-score): -0.133
Glc(b1-6)Glc
  glycan array binding signal (z-score): -0.141
GlcA(b1-3)Gal
  glycan array binding signal (z-score): -0.122
GlcA(b1-3)GlcNAc
  glycan array binding signal (z-score): -0.129
GlcA(b1-6)Gal
  glycan array binding signal (z-score): -0.009
[7]
  glycan array binding signal (z-score): -0.055
[8]
  glycan array binding signal (z-score): -0.104
[9]
  glycan array binding signal (z-score): -0.15
[10]
  glycan array binding signal (z-score): -0.12
[11]
  glycan array binding signal (z-score): -0.101
[12]
  glycan array binding signal (z-score): -0.086
[13]
  glycan array binding signal (z-score): -0.146
[14]
  glycan array binding signal (z-score): -0.112
[15]
  glycan array binding signal (z-score): -0.071
[16]
  glycan array binding signal (z-score): 0.042
[17]
  glycan array binding signal (z-score): -0.111
[18]
  glycan array binding signal (z-score): -0.139
[19]
  glycan array binding signal (z-score): -0.105
[20]
  glycan array binding signal (z-score): -0.043
[21]
  glycan array binding signal (z-score): -0.115
[22]
  glycan array binding signal (z-score): -0.137
[23]
  glycan array binding signal (z-score): -0.099
[24]
  glycan array binding signal (z-score): -0.122
[25]
  glycan array binding signal (z-score): 0
[26]
  glycan array binding signal (z-score): -0.12
[27]
  glycan array binding signal (z-score): -0.088
[28]
  glycan array binding signal (z-score): -0.054
[29]
  glycan array binding signal (z-score): -0.113
GlcNAc(b1-3)Fuc
  glycan array binding signal (z-score): -0.037
GlcNAc(b1-3)Gal
  glycan array binding signal (z-score): -0.034
[30]
  glycan array binding signal (z-score): -0.081
